Experimental data from the supplement of paper PMC9446081.
Screen size: about 39,000 compounds; about 220 (0.56%) showed activity. This is one part of the list.

Each compound was assayed on Escherichia coli K-12 BW25113 (assay: relative growth (OD600 normalised to plate interquartile mean) (fraction); higher = less growth inhibition, active = 0.2 or less). Details: 50 µM; LB; incubation time: overnight (16-24 h).
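Further: static incubation at 37 °C against the wild-type strain, values averaged over two biological replicates.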

SMILES | relative growth
C[C@@H]1CN([C@@H](C)CO)C(=O)c2cc(NC(=O)Nc3ccc4c(c3)OCO4)ccc2O[C@@H](C)CCCCO[C@H]1CN(C)C(=O)Nc1ccccc1 | inactive: 1.02
CCN(CC)c1ccc(N2CC=C[C@@]34O[C@@H]5/C=C\CCCOC(=O)[C@@H]5[C@H]3C(=O)N(CCCCCCO)[C@@H]4C2=O)cc1 | inactive: 1
CO[C@H]1CN(C)C(=O)c2cc(NC(=O)NC3CCCCC3)ccc2OC[C@@H](C)N(CCc2ccccc2)C[C@@H]1C | inactive: 1.03
COc1ccc(C2=C(N)C(=O)NC2=O)cc1OC | inactive: 0.93
C[C@@H]1CCCCO[C@H](CN(C)C(=O)Nc2ccc(C(F)(F)F)cc2)[C@@H](C)CN([C@H](C)CO)C(=O)c2cc(NC(=O)Nc3ccccc3)ccc2O1 | inactive: 0.999
Cc1ccc(C(=O)c2ccc(CC(=O)[O-])n2C)cc1.[Na+] | inactive: 1.07
CC(C)NC(=O)Nc1ccc2c(c1)C(=O)N([C@H](C)CO)C[C@H](C)[C@H](CN(C)Cc1ccc(Oc3ccccc3)cc1)O2 | inactive: 1
O=C1c2ccc3c4c(ccc(c24)C(=O)N1CCCCO)C(=O)N(CCCCO)C3=O | inactive: 0.977
O=C(C[C@@H]1CC[C@H]2[C@@H](COC[C@H](O)CN2C(=O)Nc2ccc(Cl)c(Cl)c2)O1)NCc1ccc(Cl)c(Cl)c1 | inactive: 0.966
C[C@@H]1CN([C@@H](C)CO)C(=O)Cc2cc(NS(=O)(=O)c3cn(C)cn3)ccc2O[C@H]1CN(C)C(=O)NC1CCCCC1 | inactive: 0.971
C[C@@H]1CN([C@@H](C)CO)C(=O)c2cc(NC(=O)Cc3ccccc3)ccc2O[C@@H](C)CCCCO[C@@H]1CN(C)C(=O)CCC(F)(F)F | inactive: 1.02
COc1ccc(S(=O)(=O)Nc2cccc3c2O[C@H](CN(C)S(=O)(=O)c2cn(C)cn2)[C@H](C)CN([C@H](C)CO)C3=O)cc1 | inactive: 1.01
C[C@@H]1CCCCO[C@@H](CN(C)S(=O)(=O)c2cccs2)[C@@H](C)CN([C@H](C)CO)C(=O)c2cc(NS(=O)(=O)c3cn(C)cn3)ccc2O1 | inactive: 0.997
COc1ccc(NC(=O)Nc2ccc3c(c2)C(=O)N([C@@H](C)CO)C[C@H](C)[C@H](CN(C)CC2CCCCC2)O3)cc1 | inactive: 0.992
CN(C)C(=O)C[C@@H]1C=C[C@H](NC(=O)C2CCOCC2)[C@H](CO)O1 | inactive: 0.99
C[C@@H]1CN([C@@H](C)CO)C(=O)c2cc(NS(=O)(=O)c3cccs3)ccc2O[C@@H]1CN(C)Cc1ccncc1 | inactive: 0.993
C[C@@H]1CN([C@@H](C)CO)C(=O)c2cc(NS(=O)(=O)c3cn(C)cn3)ccc2O[C@@H](C)CCCCO[C@@H]1CN(C)C(=O)c1ccncc1 | inactive: 0.975
O=C(C[C@H]1C[C@H]2c3cc(NS(=O)(=O)c4ccc(F)cc4)ccc3O[C@H]2[C@@H](CO)O1)NCc1cccc(F)c1 | inactive: 0.997
C[C@@H]1CCCCO[C@@H](CN(C)CC2CCCCC2)[C@H](C)CN([C@H](C)CO)C(=O)c2cc(NC(=O)Nc3ccc4c(c3)OCO4)ccc2O1 | inactive: 0.977
C=C[C@]1(C)C[C@@H](OC(=O)CS[C@@H]2C[C@H]3CC[C@@H](C2)N3C)[C@]2(C)[C@H](C)CC[C@]3(CCC(=O)[C@H]32)[C@@H](C)[C@@H]1O | inactive: 0.269

SMILES | relative growth
O=C(O)[C@H]1C[C@H]2C(=O)NCC(=O)N2[C@H]1c1ccc(O)cc1 | inactive: 0.997
CN(C)CC(=O)N[C@H]1CC[C@@H](CCn2cc(CN(C)C)nn2)O[C@H]1CO | inactive: 0.985
C[C@H]1CCCCO[C@H](CN(C)C(=O)NC2CCCCC2)[C@@H](C)CN([C@@H](C)CO)C(=O)c2cc(NC(=O)Nc3ccc(C(F)(F)F)cc3)ccc2O1 | inactive: 1.02
O=C(O)C1=CC(O)C(O)C(O)C1 (stereo not given) | inactive: 1.03
COc1ccc(NC(=O)N(C)C[C@H]2OCCCC[C@@H](C)Oc3ccc(NC(=O)CCC(F)(F)F)cc3C(=O)N([C@H](C)CO)C[C@H]2C)cc1 | inactive: 0.971
COc1ccc(S(=O)(=O)Nc2ccc3c(c2)C(=O)N([C@H](C)CO)C[C@@H](C)[C@@H](CN(C)Cc2ccc(C(F)(F)F)cc2)OCCCC[C@H](C)O3)cc1 | inactive: 1.02
CN(C)CC(=O)N[C@H]1C=C[C@@H](CC(=O)O)O[C@@H]1CO | inactive: 1.02
C[C@@H]1CCCCO[C@@H](CN(C)CC2CCCCC2)[C@H](C)CN([C@@H](C)CO)C(=O)c2cc(NC(=O)C3CCCCC3)ccc2O1 | inactive: 0.987
CC(C)C(=O)NS(=O)(=O)c1ccc(N)cc1 | inactive: 1
C[C@@H]1CN([C@H](C)CO)S(=O)(=O)c2ccc(C#Cc3cccnc3)cc2O[C@@H]1CN(C)C(=O)CN(C)C | inactive: 1.03
COC(=O)C(CC#Cc1ccc2c(c1)[C@]1(C(=O)N2)[C@H](c2ccccc2OCCO)N2[C@H](c3ccccc3)[C@H](c3ccccc3)OC(=O)[C@H]2[C@@H]1C(=O)Nc1nc2ccccc2s1)C(=O)OC | inactive: 1.02
CCCOc1cc(N)ccc1C(=O)OCCN(CC)CC.Cl | inactive: 1
C[C@H]1CN([C@@H](C)CO)C(=O)c2cc(NS(=O)(=O)c3ccc(F)cc3)ccc2O[C@H]1CN(C)Cc1ccc(Oc2ccccc2)cc1 | inactive: 0.99
C[C@H](CO)N1C[C@H](C)[C@H](CN(C)S(=O)(=O)c2cccc(F)c2)Oc2ncc(-c3cccc(C(=O)N(C)C)c3)cc2C1=O | inactive: 1
C[C@@H]1CCCCO[C@H](CN(C)C(=O)NC2CCCCC2)[C@H](C)CN([C@@H](C)CO)C(=O)c2cc(NS(=O)(=O)c3cccs3)ccc2O1 | inactive: 0.986
COc1ccc(CC(=O)c2ccc(O)cc2O)cc1 | inactive: 0.907
COc1ccc(-c2cc(=O)c3c(O)cc(OC)c(OC)c3o2)c(OC)c1 | inactive: 0.987
COc1cccc(S(=O)(=O)N[C@@H]2CC[C@H](CC(=O)NC3CCC3)O[C@@H]2CO)c1 | inactive: 0.986
Cc1noc(C)c1NC(=O)N(C)C[C@H]1OCCCC[C@@H](C)Oc2ccc(NC(=O)c3ccccc3)cc2C(=O)N([C@H](C)CO)C[C@@H]1C | inactive: 0.985
C[C@H](CO)N1C[C@H](C)[C@@H](CN(C)Cc2ccc(-c3ccccc3)cc2)Oc2c(NC(=O)NC3CCCCC3)cccc2C1=O | inactive: 0.893

SMILES | relative growth
COc1ccc(NC(=O)N(C)C[C@H]2OCCCC[C@H](C)Oc3ccc(NC(=O)C4CCCCC4)cc3C(=O)N([C@@H](C)CO)C[C@H]2C)cc1 | inactive: 1.01
C[C@@H]1CN([C@@H](C)CO)C(=O)c2cc(NC(=O)C3CCCCC3)ccc2O[C@@H]1CN(C)Cc1ccc(C(=O)Nc2ccccc2N)cc1 | inactive: 1.01
COc1cccc(S(=O)(=O)Nc2ccc3c(c2)[C@@H]2C[C@@H](CC(=O)NCc4ccccc4F)O[C@H](CO)[C@@H]2O3)c1 | inactive: 0.99
COc1ccc(NC(=O)Nc2ccc3c(c2)C(=O)N([C@@H](C)CO)C[C@H](C)[C@@H](CN(C)Cc2ccccc2)OCCCC[C@H](C)O3)cc1 | inactive: 0.968
COC(=O)Nc1nc2cc(C(=O)c3ccc(F)cc3)ccc2[nH]1 | inactive: 1.18
C[C@@H]1CN([C@H](C)CO)C(=O)Cc2cc(NC(=O)CCCCCC(=O)Nc3ccccc3N)ccc2O[C@@H]1CN(C)C(=O)Nc1ccc(F)cc1 | inactive: 0.977
Cc1noc(C)c1S(=O)(=O)Nc1ccc2c(c1)C(=O)N([C@@H](C)CO)C[C@H](C)[C@@H](CN(C)Cc1ccccc1)O2 | inactive: 0.968
CN(C)CCCCNC(=O)[C@@H]1C[C@@H]2C(=O)NCC(=O)N2[C@@H]1c1cccc(OCCO)c1 | inactive: 1.02
C[C@@H]1CN([C@@H](C)CO)C(=O)c2cc(NC(=O)Nc3cccc4ccccc34)ccc2O[C@@H](C)CCCCO[C@@H]1CN(C)Cc1ccc(C(F)(F)F)cc1 | inactive: 1.03
CCCC(=O)C1(c2ccccc2)CCN(C(=O)[C@@H](Cc2ccc(OC)cc2)NC(=O)[C@@H](N)Cc2cncn2C)CC1 | inactive: 1
C[C@@H]1CCCCO[C@@H](CN(C)CC2CC2)[C@@H](C)CN([C@H](C)CO)C(=O)c2cc(NC(=O)c3ccccc3)ccc2O1 | inactive: 1.01
C[C@H](CO)N1C[C@H](C)[C@@H](CN(C)C(=O)NC2CCCCC2)Oc2ccc(NC(=O)C3CC3)cc2CC1=O | inactive: 1.02
Cc1ccc(S(=O)(=O)N(C)C[C@@H]2Oc3ncc(C#CCC(C)C)cc3C(=O)N([C@H](C)CO)C[C@H]2C)cc1 | inactive: 1.04
C[C@@H]1CN([C@@H](C)CO)C(=O)c2cc(NC(=O)Cn3cnnn3)ccc2O[C@@H]1CN(C)Cc1ccc(C(=O)O)cc1 | inactive: 0.989
COc1ccc([Si](C)(C)[C@@H]2[C@@H](CCO)O[C@]3(C(=O)N(Cc4cccc(N5C(=O)c6ccccc6Oc6ccccc65)c4)c4ccccc43)[C@H]2C)cc1 | inactive: 1.03
CC(CO)(CO)NS(=O)(=O)c1ccccc1 | inactive: 0.992
C[C@@H]1CN([C@H](C)CO[Si](C)(C)C(C)(C)C)C(=O)c2cc(NC(=O)Nc3ccccc3)ccc2O[C@@H](C)CCCCO[C@H]1CN(C)S(=O)(=O)c1ccc(F)cc1 | inactive: 1.02
Nc1nc(CO)cs1 | inactive: 0.983
Cc1noc(C)c1NC(=O)Nc1ccc2c(c1)C(=O)N([C@H](C)CO)C[C@@H](C)[C@@H](CN(C)Cc1ccncc1)OCCCC[C@@H](C)O2 | inactive: 0.987
NC(=S)N1CCCC1 | inactive: 1.01
